Experimental data taken from the supplement of paper PMC7826260.
Some of the results follow. Viral Rep nickase domains cut single-stranded DNA in vitro (3 µM enzyme, 1 h, 37 °C); shown is the middle of each 90-letter strand. Uncut reads are compared with the no-enzyme pool on a log2 scale; strong cutting gives strongly negative numbers. There is no active / inactive call. Because reads are shares of a total, they shift together, so uncut sequences can rise above 0 when many others are cut.

Assays:
Experiment in all cases: uncleaved DNA left, log2 of reads against the no-enzyme library (log2 ratio); higher = less cleavage (more negative = more Rep cleavage of the k-mer); sequences stand for … in CTCGTCCG…ACCGGAGA
[1] = system: T1, Rep nickase domain of Muscovy duck circovirus
T1 sequence (residues 1-111 of Rep, tag left off): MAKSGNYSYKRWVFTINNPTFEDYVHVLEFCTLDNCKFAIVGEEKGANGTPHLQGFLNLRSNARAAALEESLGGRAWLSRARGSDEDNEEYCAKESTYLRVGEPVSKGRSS
Protocol: (§1)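 A pool of 90-nt single-stranded DNAs with seven random bases just before the constant AC of the nick site (name = the seven bases) was cut by 3 µM recombinant His6-SUMO-tagged Rep nickase domain (300 nM DNA, 50 mM HEPES pH 8.0, 50 mM NaCl, 1 mM MnCl2, 1 h, 37 °C, three replicates). Uncut DNA was amplified and sequenced.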

[2] = system: T2, Rep nickase domain of banana bunchy top virus
T2 sequence (residues 1-94 of Rep, tag left off): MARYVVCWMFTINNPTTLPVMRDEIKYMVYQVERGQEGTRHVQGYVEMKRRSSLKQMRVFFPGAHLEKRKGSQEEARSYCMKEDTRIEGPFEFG
Protocol: as §1

[3] = system: T3, Rep nickase domain of cabbage leaf curl virus
T3 sequence (residues 1-116 of Rep, tag left off): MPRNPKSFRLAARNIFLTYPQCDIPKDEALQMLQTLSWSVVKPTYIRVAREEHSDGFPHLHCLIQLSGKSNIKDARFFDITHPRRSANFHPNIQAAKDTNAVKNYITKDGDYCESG
Protocol: as §1

[4] = system: T4, Rep nickase domain of chickpea chlorotic dwarf virus
T4 sequence (residues 1-124 of Rep, tag left off): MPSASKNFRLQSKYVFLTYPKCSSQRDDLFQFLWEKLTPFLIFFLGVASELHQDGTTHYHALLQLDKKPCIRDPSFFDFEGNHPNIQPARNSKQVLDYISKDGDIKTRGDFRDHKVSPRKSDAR
Protocol: as §1

[5] = system: T5, Rep nickase domain of faba bean necrotic yellows virus
T5 sequence (residues 1-98 of Rep, tag left off): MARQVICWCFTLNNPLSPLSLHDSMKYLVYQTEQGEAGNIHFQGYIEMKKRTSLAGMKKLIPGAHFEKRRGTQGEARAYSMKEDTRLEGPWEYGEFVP
Protocol: as §1

[6] = system: T6, Rep nickase domain of maize striate mosaic virus
T6 sequence (residues 1-117 of Rep, tag left off): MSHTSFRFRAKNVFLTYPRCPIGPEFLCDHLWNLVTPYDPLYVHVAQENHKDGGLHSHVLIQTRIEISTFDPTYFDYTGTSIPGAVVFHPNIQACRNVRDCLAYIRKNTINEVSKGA
Protocol: as §1

[7] = system: T7, Rep nickase domain of porcine circovirus 2
T7 sequence (residues 2-116 of Rep, tag left off): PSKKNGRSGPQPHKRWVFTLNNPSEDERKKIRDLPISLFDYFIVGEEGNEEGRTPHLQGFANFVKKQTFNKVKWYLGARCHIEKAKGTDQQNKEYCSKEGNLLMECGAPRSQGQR
Protocol: as §1

[8] = system: T8, Rep nickase domain of tomato golden mosaic virus
T8 sequence (residues 1-124 of Rep, tag left off): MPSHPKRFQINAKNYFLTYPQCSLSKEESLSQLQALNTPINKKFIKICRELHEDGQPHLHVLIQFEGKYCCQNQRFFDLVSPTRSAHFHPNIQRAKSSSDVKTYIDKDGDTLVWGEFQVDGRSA
Protocol: as §1

[9] = system: T9, Rep nickase domain of tomato yellow leaf curl virus
T9 sequence (residues 1-136 of Rep, tag left off): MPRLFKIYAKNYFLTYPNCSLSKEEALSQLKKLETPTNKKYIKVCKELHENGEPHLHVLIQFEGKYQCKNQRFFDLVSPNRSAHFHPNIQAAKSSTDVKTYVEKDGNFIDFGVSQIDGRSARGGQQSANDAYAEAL
Protocol: as §1

[10] = system: T10, Rep nickase domain of wheat dwarf virus
T10 sequence (residues 1-137 of Rep, tag left off): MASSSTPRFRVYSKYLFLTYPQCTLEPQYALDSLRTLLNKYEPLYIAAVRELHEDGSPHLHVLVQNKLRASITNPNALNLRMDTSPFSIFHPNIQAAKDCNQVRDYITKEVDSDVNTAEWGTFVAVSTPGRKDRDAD
Protocol: as §1

Sequence	uncleaved DNA left (log2) [1]	uncleaved DNA left (log2) [2]	uncleaved DNA left (log2) [3]	uncleaved DNA left (log2) [4]	uncleaved DNA left (log2) [5]	uncleaved DNA left (log2) [6]	uncleaved DNA left (log2) [7]	uncleaved DNA left (log2) [8]	uncleaved DNA left (log2) [9]	uncleaved DNA left (log2) [10]
TGGTCAA	0.033	0.234	0.664	1.18	0.0611	1.53	0.158	0.0588	0.143	0.122
CGGTAGC	-0.0657	-0.0466	0.192	0.479	-0.0594	0.0523	0.0326	-0.0872	-0.0346	-0.0845
CTAACAT	0.112	0.125	-0.161	-0.839	0.017	0.142	-0.048	-0.0298	0.00555	0.0706
TTGCCAT	-0.0279	0.00121	-0.268	-0.658	0.016	-0.68	-1.17	0.0313	0.238	0.218
GATGGTC	0.0936	0.0399	0.521	0.859	-0.0345	1.16	0.0986	0.122	0.023	0.167
ATAGTAC	-0.576	-0.0246	-0.0643	-1.22	0.103	-0.856	-0.485	0.0972	0.0849	-0.0697
CCCCTCT	-0.107	-0.0502	-0.139	-1.99	-0.0923	-0.655	-0.206	-0.0838	-0.134	-0.148
GTAGAAT	-0.0651	-0.0557	0.268	0.76	-0.102	1.78	0.00615	0.0828	0.0822	0.133
GCGCTTG	-0.129	-0.317	-0.0445	0.184	-0.051	0.715	0.0524	-0.175	-0.277	-0.133
CTCACCT	-0.101	-0.0287	-0.143	-2.29	-0.017	-0.575	-0.405	-0.0632	0.00256	0.0413
GCCACCC	-0.203	-0.107	0.048	0.201	-0.222	0.155	-0.742	-0.17	-0.167	-0.0819
GATCTGC	0.0351	-0.0763	-0.062	0.106	0.0366	-0.425	0.153	-0.0819	-0.0118	0.00188
GGCTTTG	0.0801	0.105	0.199	0.647	0.0943	1.37	0.153	0.0141	0.0239	0.0476
TGAAGAA	0.128	-0.0157	0.151	0.0839	0.071	-0.291	-0.0248	0.139	0.0083	0.115
AAGAACA	-0.138	-0.0221	-0.152	-2.09	-0.149	-0.268	-1.09	-0.113	-0.156	-0.0447
TGGCCTG	-0.0727	-0.0232	0.108	0.603	-0.103	1.23	-0.0165	-0.00765	-0.105	-0.036
AAGTGCC	-0.0832	-0.0998	-0.443	-0.554	-0.0235	-0.926	-0.835	-0.108	0.076	-0.117
TGGACTA	0.0896	0.0683	0.81	1.93	-0.0284	2.18	0.159	-0.00424	0.0127	0.165
GATAACT	0.0113	-0.0466	-0.105	-2.39	0.0413	0.616	-0.96	0.125	0.207	0.155
CCCCGAA	0.108	-0.021	-0.00236	0.0107	-0.0745	-0.517	-0.16	0.0248	-0.108	-0.123

Sequence	uncleaved DNA left (log2) [1]	uncleaved DNA left (log2) [2]	uncleaved DNA left (log2) [3]	uncleaved DNA left (log2) [4]	uncleaved DNA left (log2) [5]	uncleaved DNA left (log2) [6]	uncleaved DNA left (log2) [7]	uncleaved DNA left (log2) [8]	uncleaved DNA left (log2) [9]	uncleaved DNA left (log2) [10]
ATAATGA	-0.0278	-0.0595	0.0446	-0.156	0.0665	-1.04	0.00171	0.0699	-0.0531	0.0273
GCCATAG	-0.0274	-0.0329	-0.752	-0.472	0.0725	-1.03	0.295	0.0813	0.151	-0.0681
GGCTACA	-0.0879	0.0463	0.492	0.849	-0.00149	1.76	-0.0232	0.0529	0.0669	0.0618
TGCGAAA	0.148	0.0452	-0.206	-0.281	-0.0255	-0.85	-0.000571	0.0798	-0.112	0.15
TCGCCTG	-0.106	-0.0513	-0.0419	0.423	-0.0483	1.14	0.0393	-0.00233	0.0228	0.0178
TCGCCTA	0.0379	0.0751	0.0224	-0.503	-0.0539	-0.488	-0.22	0.00916	0.0628	-0.12
AGGACAA	0.22	0.293	1.03	2.26	0.171	2.33	0.407	0.169	0.2	0.306
TAGCTGG	0.0879	0.0314	0.291	1.03	0.091	0.968	0.257	0.0826	-0.0269	0.139
TCAAAGT	0.0175	-0.0173	0.0449	-0.594	-0.00342	-1.05	0.0755	-0.0383	0.00266	-0.105
AATCACT	-0.474	-0.0142	-0.829	-3.09	0.113	-0.998	-3.32	-0.0856	-0.0413	-0.0571
GATTATC	-0.0681	0.0792	0.279	0.605	0.02	0.89	-0.524	-0.0502	0.172	0.176
TCAGCCC	-0.0246	-0.0673	0.037	-0.347	-0.0471	-0.393	-0.0945	-0.042	0.0687	-0.206
CTAAAGT	-0.0398	0.0153	-0.00497	-0.421	0.0307	-1.07	-0.0551	-0.0242	-0.0471	-0.107
TGTTGTC	-0.034	-0.0699	0.0921	0.0852	-0.0687	-0.345	-0.00568	-0.13	-0.0288	-0.0451
CGCAAGG	0.0583	0.0716	0.181	0.957	0.0165	0.64	0.1	0.106	-0.0133	0.0881
TCTTGAT	-0.295	-0.12	0.0396	-0.0166	-0.0914	0.349	-2.19	0.0179	-0.1	-0.109
GGGGATC	-0.0153	-0.0262	0.696	1.83	-0.105	2.2	0.0911	-0.0608	-0.186	0.0844
ACGCAGG	0.00143	-0.104	-0.511	-0.504	-0.152	-1.04	0.0154	0.0458	-0.114	-0.131
ATCAACC	-0.108	-0.0943	-0.142	-1.44	0.0138	-0.839	-0.491	-0.0279	-0.0431	-0.0393
GCTTCTG	0.208	0.109	0.023	0.434	0.0173	0.306	0.156	0.0835	0.155	0.214

Sequence	uncleaved DNA left (log2) [1]	uncleaved DNA left (log2) [2]	uncleaved DNA left (log2) [3]	uncleaved DNA left (log2) [4]	uncleaved DNA left (log2) [5]	uncleaved DNA left (log2) [6]	uncleaved DNA left (log2) [7]	uncleaved DNA left (log2) [8]	uncleaved DNA left (log2) [9]	uncleaved DNA left (log2) [10]
ATAGTGA	0.0149	-0.0269	-0.224	-0.263	0.0148	-0.935	0.0834	0.0187	0.0273	0.0625
GCTCTGG	-0.0228	-0.0864	0.0513	0.476	0.0128	-0.152	0.0738	-0.133	-0.0039	-0.0885
CTCTACC	-0.234	-1.58e-05	-0.318	-2.27	0.0553	-0.702	-0.969	-0.0366	-0.126	-0.161
CCCATCC	0.0428	-0.0603	0.0939	-0.14	0.0816	-0.668	0.0479	0.0647	-0.109	0.0304
CGGGGAC	-0.111	0.0289	0.947	1.48	-0.195	2.23	0.155	0.176	-0.102	-0.0211
TCCGCTT	0.0703	0.0599	0.104	-1.04	0.102	-0.0467	-0.134	-0.0409	0.0553	-0.0984
TCGGAGC	0.0491	-0.0323	-0.14	0.0879	-0.0517	-0.564	0.144	-0.0188	-0.0433	0.0403
CATGCGT	-0.0409	-0.0525	-0.833	0.00493	0.0376	-0.859	-0.0237	-0.133	0.0107	-0.141
GTTGTAC	-0.116	-0.000974	0.284	0.733	-0.169	1.53	-0.00175	0.0385	0.0376	-0.0922
GATCCTA	-0.113	-0.000325	0.197	0.0741	-0.0348	0.987	0.00633	-0.0504	0.0882	0.184
TTTAACC	-0.193	0.0234	-0.227	-1.6	0.0155	-0.423	-1.06	-0.0176	0.0658	0.0507
CTTCAGC	0.0182	-0.07	-0.0049	-0.0717	0.074	-0.706	0.102	0.0595	0.0541	0.00369
TGGCAAC	-0.0619	0.105	0.409	0.903	-0.0977	1.62	0.128	-0.0287	0.0932	0.188
TTTGCGT	-0.024	-0.166	-0.789	0.562	-0.0279	-0.532	0.041	-0.292	-0.0364	-0.351
GCTCAGC	-0.0104	-0.0158	-0.227	0.0915	-0.132	-0.648	0.0567	0.0585	-0.0256	-0.0975
ATCCTCG	-0.141	-0.0272	-0.956	-0.459	-0.139	-1.21	0.0573	-0.171	-0.117	-0.131
ATTGACG	-0.0888	-0.104	-0.986	-0.0712	0.004	-1.06	0.0628	-0.132	-0.0718	-0.184
CGAGGGA	-0.0999	-0.138	0.0733	0.546	-0.114	0.772	-0.116	-0.055	-0.131	-0.0211
CAGACTT	-0.0588	-1.86	-0.0449	-0.379	-0.92	1.22	-3.32	-0.124	-0.023	-0.0192
TATGAAG	0.16	0.0464	-0.709	0.0146	0.246	-0.933	0.188	0.0892	0.16	0.0894
